In ChEMBL document CHEMBL4888484, “Replenishing the malaria drug discovery pipeline: Screening and hit evaluation of the MMV Hit Generation Library 1 (HGL1) against asexual blood stage Plasmodium falciparum ,using a nano luciferase reporter read-out” (2022):
Among all 150,000 compounds or so, about 540 (0.36%) showed an effect of 50% or more. This is one part of the list.

Tested on: Plasmodium falciparum
Test: Primary screen in NF54 nanoGlo assay, in single point, at 2uM, 72h; a lower Z score goes with more inhibition
Format: functional, Erythrocyte
Conditions: timepoint 72 hour

Row | Compound | % Inhibition [%] | Z score
1 | Cc1cnc(CNC(=O)[C@H]2OCC[C@H]2Cn2cccn2)c(C)c1 | -17 | 3.09
2 | CCOc1ccc(NC(=O)CCc2cccc3[nH]ccc23)cc1 | -1 | 0.16
3 | CCOC(=O)c1ccc(NC(=O)CC2C(=O)OCC3CCCCN32)cc1 (stereo unspecified) | -1 | 0.22
4 | CC(C)(C)C(NC(=O)CC1CC(=O)NC1=O)C(F)(F)F (stereo unspecified) | 4 | -0.68
5 | O=C(NCCC1CCOCC1)c1ccncc1 | -9 | 1.86
6 | CCc1nc(CN(C)Cc2ccon2)no1 | -15 | 1.41
7 | CC(C)N1CCNC(=O)[C@@H]1CC(=O)NCc1cn[nH]c1-c1cccs1 | -18 | 2.39
8 | O=C(NC1CCN(CC2CC2)CC1)c1cnc(Oc2ccccc2)cn1 | -4 | 0.69
9 | CCCNC(=O)c1nn(-c2cccc(C)c2)c(=O)n(CCC)c1=O | -11 | 1.07
10 | O=C(c1cc(OCc2ccccc2)no1)N1CCCCC1 | -13 | 2.45
11 | CN(C)CCNC(=O)C1C(c2cccc(NC(=O)c3ccccc3F)c2)OC(=O)N1Cc1cccc(Cl)c1 (stereo unspecified) | -9 | 1.81
12 | O=C(Cc1cccnc1)NC[C@H]1CCCN(C(=O)c2cccc3cc[nH]c23)C1 | 2 | -0.37
13 | CS(=O)(=O)c1ccc(C(=O)N2CC3(CCC3)[C@@H]2C2CC2)s1 | -9 | 1.72
14 | Cc1ncsc1C(=O)N1CCN(c2ccc(C3CC3)nn2)CC1 | 14 | -1.84
15 | C=CCN1C[C@H](C)N(C(=O)c2ccnn2C)C[C@@H]1C | -8 | 1.36
16 | Cc1cc(C(=O)N2C[C@@H]3CC[C@H]2CN(C(=O)N(C)C)C3)no1 | -4 | 0.76
17 | CC(C)c1nc(CNc2ccc(C#N)cn2)cs1 | 14 | -1.64
18 | Cc1c(Cl)cccc1NC(=O)CCNCc1ccncc1 | 5 | -0.77
19 | C=CCN1CC[C@@]2(CCC1=O)CN(S(=O)(=O)N1CCCC1)CCN2C | -7 | 0.71
20 | O=C1CS(=O)(=O)[C@]2(CCS(=O)(=O)C2)N1c1ccccc1 | -5 | 0.67
21 | O=C1[C@@H]2C3CCCN3C3(C(=O)Nc4ccc(Br)cc43)[C@@H]2C(=O)N1CCc1ccccc1 (stereo partly specified) | -9 | 1.2

Row | Compound | % Inhibition [%] | Z score
22 | COC(=O)CN1CCN(C(=O)c2cnc(-c3ccccc3)nc2)[C@@H](C)C1=O | -2 | 0.33
23 | CN(C(=O)Cn1cc(S(=O)(=O)N2CCOCC2)ccc1=O)c1ccccc1 | -6 | 1.22
24 | CN(C(=O)[C@@H]1COc2cc(F)ccc2C1)C1(CN)CCC1 | -10 | 1.24
25 | c1cn(-c2cc(-c3noc(-c4ccoc4)n3)ccn2)cn1 | -4 | 0.34
26 | CO[C@@H]1COC[C@H]1n1cc(CNS(=O)(=O)CC(C)(C)OC)nn1 | 9 | -1.07
27 | Cc1nc([C@@]2(CC3CC3)CCCN(S(=O)(=O)c3ccccc3Cl)C2)no1 | -6 | 0.8
28 | O=C(COc1cc(Cl)cc(Cl)c1)N[C@@H](Cc1nnc[nH]1)c1ccccc1 | -7 | 1.06
29 | O=S1(=O)N(Cc2ccccc2Cl)c2ccccc2N1C1CC1 | -9 | 1.1
30 | COc1ccc(-c2nn(-c3ccccc3F)cc2CN2CCOCC2)cc1 | -19 | 3.28
31 | COc1ccc(CCc2n[nH]c(C)c2NC(=O)c2cccc(Cl)c2)cc1 | -1 | 0.15
32 | CCCCCc1nc([C@H](C)N2CCN(C)CC2)n(-c2cc(C)ccn2)n1 | -3 | 0.42
33 | Cc1cc(N2CC[C@H](Oc3cncc(Br)c3)C2)ncn1 | -17 | 3.19
34 | CC(C)[C@@]1(O)CN(C(=O)c2onc3c2CCCC3)C[C@@H]1C | -14 | 2.61
35 | COc1ccc(-c2ccc(N3CCN(C(=O)CN(Cc4ccccc4)C(=O)NC(C)C)CC3)nn2)cc1OC | -35 | 3.1
36 | CCn1cc(C(=O)OC2(C3CC3)CC2)cn1 | -9 | 1.44
37 | CCCN1CCN(C(=O)c2cc(NC(=O)COC)cc3nc(-c4ccncc4)n(C)c23)CC1 | 2 | -0.42
38 | COCCCn1c(C)c(C)c(S(=O)(=O)c2ccccc2)c1NC(=O)CC(C)C | -16 | 2.15
39 | CC(C)=CCNC(=O)N[C@H]1CCCOCC1 | -9 | 0.92
40 | CCCc1nc(-c2nc(CCOC)no2)cs1 | -9 | 1.13
41 | Cc1cccc(C(=O)Nc2c(N3CCCCC3)c(-c3cccc(F)c3)nn2C)c1 | -1 | 0.13
42 | O=C(NC1CC1)c1nn(-c2cccc(Cl)c2)c(=O)n(Cc2cccc(F)c2)c1=O | -5 | 0.71

Row | Compound | % Inhibition [%] | Z score
43 | O=C([C@@H]1CCC(=O)N1S(=O)(=O)c1ccccc1)N1CCc2ccccc2C1 | -9 | 1.26
44 | CCCCOc1ccc(C(=O)Nc2ccc(N3CCC(C)CC3)c(C(=O)NCc3ccc(F)cc3)c2)cc1 | -13 | 1.93
45 | CN(c1cncc(C(=O)NCCC2=CCCCC2)c1)S(=O)(=O)c1ccccc1 | -9 | 1.76
46 | Cc1nnsc1C(=O)NCCn1ccnc1C1CC1 | 13 | -1.69
47 | O=C(Cn1c(=O)ncc2c1cnn2[C@H]1CCS(=O)(=O)C1)N1CCCc2ccccc21 | -9 | 1.21
48 | CO[C@@H](C)c1noc(CNc2ccc(F)cc2OCC2CC2)n1 | -13 | 1.87
49 | CCCc1cc(C(=O)N2C[C@H](CO)[C@@H](CO)C2)no1 | -14 | 1.9
50 | Cc1ccc2nc(C[C@H]3CN(CC(C)(C)C)CC[C@H]3CC(=O)O)[nH]c2c1 | 2 | -0.23
51 | Cc1ccc(-c2c(NS(=O)(=O)c3ccccc3)c(O)nc3ccccc23)cc1 | -11 | 1.24
52 | Cc1onc(N)c1S(=O)(=O)NC(=O)c1cnn(Cc2ccccc2)c1 | -4 | 0.57
53 | CN1C[C@@H](O)CNS(=O)(=O)c2ccc(-c3cccnc3)cc2O[C@H]2CN(Cc3csnn3)C[C@H]21 | -10 | 1.58
54 | Cc1cccc2c(Cc3nn4c(C)nnc4s3)noc12 | -5 | 0.62
55 | CCCc1nc(C(=O)N2C[C@@H]3CC[C@H]2CN(Cc2[nH]cnc2C)C3)cs1 | 4 | -0.62
56 | COC(=O)N1CCC[C@H](Nc2nc(C3CC3)ns2)C1 | -20 | 1.77
57 | O=C(c1ccc(Cl)cn1)N1CC(O)CC1c1cc(F)ccc1F (stereo unspecified) | -10 | 1.15
58 | Cc1nccn1[C@@H](C)CC(=O)NC(C)(C)C(=O)O | -19 | 1.81
59 | Cc1cscc1C(=O)Nc1ncccc1-c1ccccc1 | -14 | 1.74
60 | OCc1nc2cc(-n3ccnc3-c3cc(-c4ccccc4)no3)ccc2[nH]1 | -17 | 2.89
61 | CC(C)Nc1ncc(C(=O)N2CC(O)C2)cn1 | -22 | 2.36
62 | CCN1CCN(C(=O)c2ccccc2N2CCC(NC(=O)c3ccc(Cl)cc3)CC2)CC1 | -5 | 0.58
63 | CCN(Cc1cnc(NC[C@H]2CCCO2)nc1)C1CCOCC1 | 6 | -1.2

Row | Compound | % Inhibition [%] | Z score
64 | O=C(Cn1ncccc1=O)N1CC[C@H](OCC2CC2)C1 | -5 | 0.76
65 | CN(c1ccc(NC(=O)N2CCN(S(C)(=O)=O)CC2)cc1F)C1CCCCC1 | 29 | -3.86
66 | O=S(=O)(c1c(Cl)ccc(F)c1F)N1CC(N2CCCC2)C1 | -7 | 1.15
67 | COc1ccc(-c2cc3nc(C)cc(N4CCC(C(=O)NCc5ccccc5)CC4)n3n2)cc1 | 4 | -0.42
68 | CC[C@@H](CO)N(Cc1ccco1)C(=O)CCn1ccc(=O)[nH]c1=O | 15 | -1.92
69 | COC1(C(=O)NC[C@H]2CCCCN(Cc3ccccc3)C2)CCOCC1 | -7 | 1.09
70 | CC(=O)N[C@H](C(=O)N1CCCC1)C(C)C | 33 | -0.41
71 | COc1cccc(C#CCOC(=O)c2c(C)noc2C)c1 | 1 | -0.08
72 | Cc1nn(C)c(Cl)c1S(=O)(=O)N1CC(OC(C)C)C1 | 2 | -0.43
73 | CC(C)(C)NC(=O)C(=O)NCc1cccnc1 | -13 | 1.51
74 | CCc1ccc(C2CCC(C(=O)NCc3ccccc3)CN2C(C)=O)cc1 (stereo unspecified) | 0 | -0.01
75 | C[C@@H](C(=O)NC(=O)NC1CC1)N(C)Cc1ccc2c(c1)OCCO2 | -3 | 0.58
76 | CN(CCCn1cccn1)C1CCN(c2nc3ccccc3o2)CC1 | -3 | 0.43
77 | COc1ccc(NC(=O)Cn2cnc3nc(-c4cccnc4)ncc3c2=O)c(OC)c1 | -10 | 1.01
78 | CC[C@H]1OCC[C@@H]1NC(=O)Nc1ccc(OC(F)F)nc1 | -1 | 0.17
79 | Cc1cccc(C)c1CC(=O)NS(=O)(=O)C1CCCC1 | -6 | 0.8
80 | CC[C@H](c1nc2ccccc2n1C)C(O)(c1ccccc1)c1ccccc1 | 1 | -0.28
81 | CC(=O)N1CCC(CNC(=O)Nc2nnc(-c3cccs3)s2)CC1 | 10 | -1.24
82 | COc1cccc(CN2CCN(c3ncnc4onc(C)c34)C[C@@H]2CCO)c1 | 2 | -0.3
83 | Cc1ccc(-c2nn(CC(=O)N3CCN(C)CC3)c(=O)c3ccccc23)cc1S(=O)(=O)N1CCCCC1 | -5 | 0.77
